About 550 (1.1%) of roughly 48,000 compounds were called active. Not shown: some 4% with an inconclusive outcome. Rule as the data show it: active = potency below about 15 µM; inconclusive = mostly about 16 µM to 33 µM; inactive = weaker than that. This is one part of the list.
Biological target: Lysosomal acid glucosylceramidase (Homo sapiens) (UniProt P04062)
Assay: Glucocerebrosidase;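 also: the screen sought inhibitors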
Conditions: purified enzyme, resorufin glucoside fluorescence (screen aimed at inhibitors), 20 min
In short: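 Normal human glucocerebrosidase (0.2 nM final) was assayed with resorufin β-D-glucopyranoside (30 uM final) in 50mM citric acid/KH2PO4, 10mM sodium taurocholate, 0.01% tween-20, pH 5.9. Compounds were titrated; fluorescence (Ex 548, Em 600) read after 20 min at RT.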
Potency is read from the fitted curve at half-maximal effect.

Chain of UniProt P04062 (P04062 whole entry, looked up): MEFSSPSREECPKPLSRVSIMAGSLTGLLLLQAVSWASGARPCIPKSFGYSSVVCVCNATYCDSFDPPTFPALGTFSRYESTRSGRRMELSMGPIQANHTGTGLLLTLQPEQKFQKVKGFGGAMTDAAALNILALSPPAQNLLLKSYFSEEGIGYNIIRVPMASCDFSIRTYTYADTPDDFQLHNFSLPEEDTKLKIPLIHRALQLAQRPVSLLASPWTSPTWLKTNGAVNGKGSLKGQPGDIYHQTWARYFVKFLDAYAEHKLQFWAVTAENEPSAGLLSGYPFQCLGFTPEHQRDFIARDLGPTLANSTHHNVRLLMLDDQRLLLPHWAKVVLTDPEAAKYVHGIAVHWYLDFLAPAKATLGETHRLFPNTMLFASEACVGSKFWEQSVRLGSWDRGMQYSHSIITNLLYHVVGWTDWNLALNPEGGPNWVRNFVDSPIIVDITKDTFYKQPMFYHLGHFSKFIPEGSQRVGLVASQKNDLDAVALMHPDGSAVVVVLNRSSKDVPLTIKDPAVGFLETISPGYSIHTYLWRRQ

Compound	Potency
CCCCNC(=O)c1cc2c(=O)n3cccc(C)c3nc2n(CCN2CCOCC2)c1=N	inactive: > 76.9 µM
Cc1sc2nc(SCC(=O)c3cc(C)n(CC4CCCO4)c3C)n(C(C)C)c(=O)c2c1C (centres undefined)	inactive: > 76.9 µM
COc1ccc(N2CCN(C(=O)Cc3nn(C)c(=O)c4ccccc34)CC2)cc1	inactive: > 76.9 µM
CCOC(=O)c1sc(-c2ccc(OC)cc2)cc1N	inactive: > 76.9 µM
O=C(CSc1nnc(Cc2csc(Nc3cccc(Cl)c3)n2)o1)N1CCc2ccccc21	active: 14.5 µM
Cc1ccc(NC(=O)C2(N(CC(C)C)C(=O)Cn3nnnc3N)CCCCC2)cc1	inactive: > 76.9 µM
CC(=O)N1C(c2ccccc2)CC(=O)OC1c1ccc2c(c1)OCO2 (centres undefined)	inactive: > 76.9 µM
N#CCSc1nnc(Cc2cccs2)n1C1CCCCC1	inactive: > 76.9 µM
COc1ccc(S(=O)(=O)Nc2ccccc2C(F)(F)F)cc1	inactive: > 76.9 µM
CN(C)C(=O)c1c(-c2ccccc2)oc2ccc(O)cc12	inactive: > 76.9 µM
Cc1ccc(S(=O)(=O)N2CCCC2C(=O)O)cc1 (centres undefined)	inactive: > 76.9 µM
CC(C)n1c(SCC(=O)Nc2ccccc2N2CCCCC2)nc2c1c(=O)n(C)c(=O)n2C	inactive: > 76.9 µM
O=C(c1ccco1)N1CCC(n2nnc3ccccc32)CC1	inactive: > 76.9 µM
O=C(NCc1ccco1)c1cnn2c(C(F)F)cc(-c3ccccc3)nc12	inactive: > 76.9 µM
COC(=O)c1cc(-c2c(C)oc3cc(OC)ccc3c2=O)c(C)o1	inactive: > 76.9 µM
Cc1ccc(C)c(N2C(=O)CN=C2Nc2ccccc2Cl)c1	inactive: > 76.9 µM
CCOc1cc(CNn2cnnc2)ccc1OCC(=O)NC1CCCCC1	inactive: > 76.9 µM
Cc1cccc(NC2=NCC(=O)N2Cc2ccccc2)c1	inactive: > 76.9 µM
COc1cc(-c2nc(S(=O)(=O)c3ccccc3)c(N3CCOCC3)o2)cc(OC)c1OC	inactive: > 76.9 µM
Nc1nonc1-c1noc(N2CCCCC2)n1	inactive: > 76.9 µM
Cc1nc(C)c(-c2csc(Nc3cccnc3)n2)s1	inactive: > 76.9 µM
COc1cc(-c2nc(Cc3ccccc3Cl)no2)cc(OC)c1OC	inactive: > 76.9 µM
CC1=C(C(=O)OCC2CCCO2)C(c2ccc(O)cc2)NC(=O)N1 (centres undefined)	inactive: > 76.9 µM

Compound	Potency
Cc1ccc(S(=O)(=O)N2CCN(C3CC(=O)N(Cc4ccccc4)C3=O)CC2)cc1C (centres undefined)	inactive: > 76.9 µM
CCOC(=O)N1CCC(NC(=O)c2cc(S(=O)(=O)N3CCCC3)cn2C)CC1	inactive: > 76.9 µM
COC(=O)C1=C(C)NC(C)=C(C(=O)OC)C1c1cc2cc(C)ccc2[nH]c1=O	inactive: > 76.9 µM
CCCOc1ccc(C2/C(=C(/O)c3ccc(F)cc3)C(=O)C(=O)N2CCCN(C)C)cc1 (centres undefined)	inactive: > 76.9 µM
CC(C(=O)NCc1ccccc1)N1C(=O)CN(C)C(=O)c2ccccc21 (centres undefined)	inactive: > 76.9 µM
O=C(c1ccco1)N1CCN(C(=O)C2CCCN(S(=O)(=O)Cc3ccccc3)C2)CC1 (centres undefined)	inactive: > 76.9 µM
O=C(CCCc1cccs1)Nc1nc2c(s1)CCCC2	inactive: > 76.9 µM
C=CCSC1=C(C#N)C(c2ccccc2)CC(=O)N1 (centres undefined)	inactive: > 76.9 µM
CC(NC(=O)c1ccccc1)c1nc2ccccc2n1Cc1ccc(C#N)cc1 (centres undefined)	inactive: > 76.9 µM
Cc1cc2cc(CCNS(C)(=O)=O)c(=O)[nH]c2cc1C	inactive: > 76.9 µM
c1ccc(-n2nnnc2-n2cnc3ccccc32)cc1	inactive: > 76.9 µM
O=C(CCn1nc(-c2ccc(Cl)cc2)ccc1=O)NCc1ccccn1	inactive: > 76.9 µM
O=C(c1ccccc1)c1coc2ccc(O)c(Cl)c12	inactive: > 76.9 µM
CN(C)S(=O)(=O)c1cccc(C(=O)OCC(=O)N2c3ccccc3NC(=O)C2(C)C)c1	inactive: > 76.9 µM
CCOC(=O)CSc1nnc(CNC(=O)c2ccc(OC)cc2)n1-c1ccc(OC)cc1	inactive: > 76.9 µM
O=C(O)C1CCCCC1C(=O)NCCCc1ccccc1 (centres undefined)	inactive: > 76.9 µM
Cc1cc(C(F)F)n2nc(C(=O)Nc3ccc(F)cc3F)nc2n1	inactive: > 76.9 µM
COc1ccc(N2CCCn3c2nc2c3c(=O)n(Cc3ccccc3F)c(=O)n2C)c(OC)c1	inactive: > 76.9 µM
CCN(C(=O)COc1cc(=O)n(CC)c2ccccc12)c1cccc(Cl)c1	inactive: > 76.9 µM
Cc1cccc(-n2nnnc2SCc2csc(-c3ccccc3)n2)c1	inactive: > 76.9 µM
Cc1ccc(N2CC(C(N)=O)CC2=O)cc1 (centres undefined)	inactive: > 76.9 µM
COCCNC(=O)c1cnn2c(C(F)(F)F)cc(-c3ccc4c(c3)OCO4)nc12	inactive: > 76.9 µM
CCN(CC(=O)Nc1c(C(=O)OC)[nH]c2ccc(Cl)cc12)c1ccc2c(c1)OCO2	inactive: > 76.9 µM

Compound	Potency
COc1ccc(S(=O)(=O)N(Cc2cc3ccc(OC)cc3[nH]c2=O)CC2COCCO2)cc1 (centres undefined)	inactive: > 76.9 µM
Cc1c(Cl)cccc1N(CC(=O)N1CCCCCC1)S(C)(=O)=O	inactive: > 76.9 µM
CC1CCN(C(=O)C2CCN(S(=O)(=O)c3cnc[nH]3)CC2)CC1	inactive: > 76.9 µM
CCCNS(=O)(=O)c1ccc(OCC(=O)NCc2ccc3c(c2)OCO3)cc1	inactive: > 76.9 µM
Cc1cc(C)nc(SCC(=O)Nc2ncc3c(n2)CCCC3=O)n1	inactive: > 76.9 µM
CC(=O)N1CCC(O)(c2cccc(C(F)(F)F)c2)CC1	inactive: > 76.9 µM
CC(=O)N1CCc2cc(S(=O)(=O)CCC(=O)NCc3ccc4c(c3)OCO4)ccc21	inactive: > 76.9 µM
CCOC(=O)c1c(C)[nH]c(C(=O)COC(=O)CSCC(=O)N(CC)CC)c1C	inactive: > 76.9 µM
Cc1c(N(C)C)nc2ccccc2c1N	inactive: > 76.9 µM
CN(C)c1nc(OCCOC(=O)c2ccccc2)nc(N(C)C)n1	inactive: > 76.9 µM
COCC(C)NC(=O)c1cc(-c2ccc(OC)c(OC)c2)on1 (centres undefined)	inactive: > 76.9 µM
CCn1nc(NC(=O)c2ccccn2)c2cc3cccc(C)c3nc21	inactive: > 76.9 µM
Cc1oc(-c2cccs2)nc1CS(=O)CC(=O)NCCCOC(C)C (centres undefined)	inactive: > 76.9 µM
COCCOC(=O)c1c(C)oc2ccc(OC(=O)c3c(OC)cccc3OC)cc12	inactive: > 76.9 µM
COc1ccc(C2c3sc(=O)[nH]c3SC3C4CCC(C4)C23)cc1 (centres undefined)	inactive: > 76.9 µM
O=C(CN(Cc1ccccc1C(F)(F)F)C(=O)CNC(=O)c1ccco1)NC1CCCC1	inactive: > 76.9 µM
CCOc1ccc2cc(C#N)c(SCC(=O)OC)nc2c1	inactive: > 76.9 µM
CC(=O)Nc1ccccc1C(=O)N1CC2(C)CC1CC(C)(C)C2 (centres undefined)	inactive: > 76.9 µM
CCC(C)NC(=O)CCNS(=O)(=O)c1ccc(Br)cc1 (centres undefined)	inactive: > 76.9 µM
O=C(O)CSc1nnc(-c2cc3ccccc3o2)n1-c1ccccc1	inactive: > 76.9 µM
COc1ccc(-c2cc(N)n(S(=O)(=O)c3c(F)c(F)c(F)c(F)c3F)n2)cc1OC	inactive: > 76.9 µM
CC(=O)OC(C(=O)NCc1ccco1)c1ccncc1 (centres undefined)	inactive: > 76.9 µM
Cc1ccccc1Cn1ccc(NC(=O)c2nc3ncccn3n2)n1	inactive: > 76.9 µM

Compound	Potency
C1CCC(n2nnnc2CN2CCCC2)CC1	inactive: > 76.9 µM
CC(=O)c1c(C)[nH]c(C(=O)Nc2c(C)n(C)n(-c3ccccc3)c2=O)c1C	inactive: > 76.9 µM
CCn1c(SCC(=O)Nc2ccccc2C(=O)OC)nnc1-c1ccoc1C	inactive: > 76.9 µM
CCOC(=O)CSc1nc2c(c(=O)[nH]c(=O)n2C)n1CCCc1ccccc1	inactive: > 76.9 µM
CC(CN1CCOCC1)C(=O)O (centres undefined)	inactive: > 76.9 µM
Cc1ccc(OCCn2c(NC(=O)c3ccco3)nc3ccccc32)cc1	inactive: > 76.9 µM
CCC(C)n1[nH]c(=O)c2c(C)cc(C)nc21 (centres undefined)	inactive: > 76.9 µM
CCOc1ccc2cc(C#N)c(SCC(=O)NC(C)CC)nc2c1 (centres undefined)	inactive: > 76.9 µM
CC(=O)O[C@H]1CSC[C@H]1NC(=O)c1ccccc1	inactive: > 76.9 µM
O=C(c1nc2ncccn2n1)N1CCN(c2ccccc2)CC1	inactive: > 76.9 µM
CN(C)CCNc1nc2c(c(=O)[nH]c(=O)n2C)n1CC(O)COc1ccc(Cl)cc1 (centres undefined)	inactive: > 76.9 µM
COCCn1c(C)cc(C(=O)CSc2n[nH]c(N)n2)c1C	inactive: > 76.9 µM
Cc1ccc(C(C(=O)NC2CCCC2)N(Cc2cccs2)C(=O)CNC(=O)c2cccs2)o1 (centres undefined)	inactive
C=CCNC(=O)Nc1ccc(OCC)cc1	inactive: > 76.9 µM
Cc1oc2ccc(OCC(N)=O)cc2c1C(=O)OC(C)C	inactive: > 76.9 µM
COC(=O)[C@H](C)NC(=O)NC1CCCc2ccccc21 (some centres undefined)	inactive: > 76.9 µM
CC1(C(=O)NC2CCCC2)CCC(=O)N1Cc1cccs1 (centres undefined)	inactive: > 76.9 µM
CN(C)S(=O)(=O)c1cccc(CSc2cccc[n+]2[O-])c1	inactive: > 76.9 µM
CCOC(=O)c1oc2ccc(S(=O)(=O)Nc3ccc4c(c3)n(C)c(=O)n4C)cc2c1C	inactive: > 76.9 µM
COc1ccc(NS(=O)(=O)c2cc(C)ccc2OC)cc1OC	inactive: > 76.9 µM
